Test results from PubChem BioAssay AID504339 (National Center for Advancing Translational Sciences (NCATS), 2011).
About 17,000 (4.4%) of roughly 390,000 compounds were called active. The inconclusive results got no clear call from the source; some entries with a clear call stand among them for comparison. Calls come from the whole dose curve; as a rule, active = well fitted inhibition curve with a large enough effect; inconclusive = small, poorly fitted or top-dose-only effect; inactive = no such curve, though single readings can be large or run the other way. Potencies beside an inconclusive call are fits to weak or partial responses and may not hold up.

The compounds below were run against Lysine-specific demethylase 4A (Homo sapiens) (UniProt O75164) (assay: qHTS Assay for Inhibitors of JMJD2A-Tudor Domain). Details: AlphaScreen JMJD2A-Tudor / H3K4me3 peptide binding; series mostly up to 114 µM.
UniProt O75164, sequence (O75164 whole entry, looked up, the tested form may be a part): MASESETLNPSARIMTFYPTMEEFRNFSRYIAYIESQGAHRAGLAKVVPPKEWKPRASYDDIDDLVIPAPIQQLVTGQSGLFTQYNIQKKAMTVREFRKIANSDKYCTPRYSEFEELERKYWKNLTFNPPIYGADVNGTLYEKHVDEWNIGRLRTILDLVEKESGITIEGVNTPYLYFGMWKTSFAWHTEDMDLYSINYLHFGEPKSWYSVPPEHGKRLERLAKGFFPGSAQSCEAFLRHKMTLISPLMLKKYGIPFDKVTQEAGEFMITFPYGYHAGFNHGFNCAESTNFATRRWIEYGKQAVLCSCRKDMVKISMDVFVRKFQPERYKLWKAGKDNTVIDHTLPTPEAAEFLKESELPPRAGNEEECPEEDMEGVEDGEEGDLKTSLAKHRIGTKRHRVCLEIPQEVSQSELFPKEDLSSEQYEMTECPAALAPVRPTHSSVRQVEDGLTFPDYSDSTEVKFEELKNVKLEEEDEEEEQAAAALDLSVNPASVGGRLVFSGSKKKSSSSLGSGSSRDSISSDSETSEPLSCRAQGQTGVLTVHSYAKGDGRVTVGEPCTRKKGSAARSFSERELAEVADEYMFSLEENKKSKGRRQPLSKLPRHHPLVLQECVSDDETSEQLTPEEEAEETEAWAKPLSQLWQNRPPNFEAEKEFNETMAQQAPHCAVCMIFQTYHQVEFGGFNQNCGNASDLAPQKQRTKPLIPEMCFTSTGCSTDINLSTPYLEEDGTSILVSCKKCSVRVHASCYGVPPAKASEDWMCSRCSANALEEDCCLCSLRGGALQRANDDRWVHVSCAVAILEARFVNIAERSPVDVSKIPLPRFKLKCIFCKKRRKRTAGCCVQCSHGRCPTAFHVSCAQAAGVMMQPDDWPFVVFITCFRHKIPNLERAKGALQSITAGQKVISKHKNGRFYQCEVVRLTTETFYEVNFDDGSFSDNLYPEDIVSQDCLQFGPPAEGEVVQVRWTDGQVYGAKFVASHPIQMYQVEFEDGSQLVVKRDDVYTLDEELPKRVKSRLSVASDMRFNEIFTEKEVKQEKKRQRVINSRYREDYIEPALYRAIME
Note: nearly all actives have a fitted effect of over 50% in size.
Potency is the fitted concentration of half-maximal effect; tags give direction and shape of the fitted curve.

Potency, inconclusive:
COc1ccc([C@H]2CC(=O)C=C(c3ccc4c(c3)OCO4)C2)cc1OC 63.1 µM [inhibitor, partial curve, poor fit], O=C(COC(=O)CCc1c[nH]c2ccccc12)NC(c1ccccc1)c1ccccc1 44.7 µM [inhibitor, partial curve], Cc1[nH]c2ccccc2c1-c1csc(NC(=O)CSCCO)n1 79.4 µM [inhibitor, partial curve], CCOC(=O)c1cnc(Nc2nc3ccccc3o2)nc1CN1CCN(C)CC1 89.1 µM [inhibitor, single point], Clc1ccccc1-c1nnc2sc(-c3ccc4c(c3)OCO4)nn12 20 µM [inhibitor, full curve], COc1ccc(C(=O)COC(=O)c2cc([N+](=O)[O-])ccc2N2CCOCC2)c(OC)c1 22.4 µM [inhibitor, full curve], COc1cccc(C2CC(C(F)(F)F)n3ncc(C(=O)NCc4ccco4)c3N2)c1 (stereo not given) 79.4 µM [inhibitor, single point], COc1cccc(/C=C2\SC(=S)N(NS(=O)(=O)c3ccccc3)C2=O)c1OC 56.2 µM [inhibitor, partial curve], Cc1cc(C)c2nc(N(CCCN(C)C)C(=O)c3ccc(S(=O)(=O)N4CCCCCC4)cc3)sc2c1 10 µM [inhibitor, partial curve, poor fit], CCOC(=O)C1=C(N)Oc2c(oc(CO)cc2=O)C1c1c(F)cccc1Cl (stereo not given) 89.1 µM [inhibitor, single point], Cc1cccc(N2CCN(C(=O)CSc3ccsc3[N+](=O)[O-])CC2C)c1 (stereo not given) 28.2 µM [inhibitor, full curve], COc1ccc(OC)c(C2/C(=C(\O)c3ccc4c(c3)OCCO4)C(=O)C(=O)N2CC2CCCO2)c1 (stereo not given) 39.8 µM [inhibitor, single point], CN(C)CCCNC(=S)NCC(c1ccc(Cl)cc1Cl)c1c[nH]c2ccccc12 (stereo not given) 50.1 µM [inhibitor, partial curve], Cc1ccc(-n2c(C)cc(C(=O)OCC(=O)N(CC(C)C)C3CCS(=O)(=O)C3)c2C)cc1 (stereo not given) 50.1 µM [inhibitor, partial curve], CC(NCc1ccc(F)cc1)C(=O)NC1CCCCC1 (stereo not given) 5.01 µM [inhibitor, single point], Cc1ccnc(SCc2cc(=O)c(OC(=O)c3ccc(Cl)c([N+](=O)[O-])c3)co2)n1 25.1 µM [inhibitor, single point], COc1ccc2c(n1)Sc1nc3ccccc3nc1N2 56.2 µM [inhibitor, single point], CCOC(=O)c1c(C)[nH]c(C)c1C(=O)COC(=O)CCc1ccccc1 35.5 µM [inhibitor, partial curve], C/C(=N\NC(=S)NC(C)C)c1cccc([N+](=O)[O-])c1 44.7 µM [inhibitor, partial curve], COc1cc(C(=O)NNC(=O)c2cc(C)[nH]n2)cc(OC)c1OC 35.5 µM [inhibitor, full curve], CCc1cccc(NC(=O)c2ccc(Cn3c(=O)[nH]c4ccsc4c3=O)cc2)c1 50.1 µM [inhibitor, partial curve], COc1ccc(NC2CCN(C3CC(=O)N(c4ccc(F)c(Cl)c4)C3=O)CC2)cc1 (stereo not given) 50.1 µM [inhibitor, partial curve], COc1ccc(N=Cc2c[nH][nH]c2=O)cc1 39.8 µM [inhibitor, single point], CN1CCN(c2ccc(Nc3ccnc4cc(Cl)ccc34)cc2)CC1 56.2 µM [inhibitor, partial curve], Cc1cccc(CS(=O)(=O)c2ncc(Cl)c(C(=O)Nc3nnc(C(C)C)s3)n2)c1 7.08 µM [inhibitor, full curve, poor fit], Nc1ccc2c(c1)C(=O)c1ccc(N)cc1-2 56.2 µM [inhibitor, partial curve], O=C(Nc1ccc(N2CCCCC2)cc1)c1ccccn1 28.2 µM [inhibitor, partial curve], Cc1cc(C(=O)COC(=O)/C=C/c2ccco2)c(C)n1C 56.2 µM [inhibitor, partial curve], C(=N\NC1=Nc2cccc3cccc1c23)/c1ccccn1 10 µM [inhibitor, full curve], CC(=O)OC[C@H]1O[C@@H](Sc2cccc3cccnc23)[C@H](OC(C)=O)[C@@H](OC(C)=O)[C@H]1OC(C)=O 35.5 µM [inhibitor, partial curve], C/C(=N\N=C(/N)SC1CC(=O)N(c2cccc(Cl)c2)C1=O)c1cccs1 (stereo not given) 50.1 µM [inhibitor, partial curve], CC(C)n1cnc2c(=S)nc[nH]c21 28.2 µM [inhibitor, single point], O=C(NC1CCSC1=O)c1cccc(C(=O)NC2CCSC2=O)c1 (stereo not given) 56.2 µM [inhibitor, partial curve, poor fit], Cc1cc(C)n2nc(C(=O)NNC(=O)c3ccccc3)nc2n1 7.08 µM [inhibitor, full curve], O=C(O)CCCC(=O)Nc1nc2n(n1)C(c1ccc(F)cc1)CC(c1ccc(Cl)cc1)N2 (stereo not given) 79.4 µM [inhibitor, partial curve], CCOC(=O)c1c(S(=O)(=O)N2CCCC(C(=O)N3CCN(c4cc(C)ccc4C)CC3)C2)c(C)n(C)c1C (stereo not given) 63.1 µM [inhibitor, partial curve], Cc1ccc2[nH]c(=O)c(CN(CCCN3CCOCC3)C(=O)Nc3cccc(Cl)c3)cc2c1 17.8 µM [inhibitor, full curve, poor fit]

Potency, inactive:
O=C1OCC2=C1C(c1ccccc1)CC(=O)N2c1ccccc1 (stereo not given), Cc1nn(C)c(C(=O)Nc2ccc(Cl)c([N+](=O)[O-])c2)c1Cl, COc1ccc(OC)c(CCNC(=O)CN2C(=O)CCSc3ccccc32)c1, S=C(NC12CC3CC(CC(C3)C1)C2)N1CCCC1, CCOc1ccc(CCNC(=O)CCS(=O)(=O)c2ccc(Br)cc2)cc1OCC, Cc1ccc(Nc2nc(C(=O)N3CCC(C(=O)NCc4ccccc4)CC3)cs2)cc1, COc1ccccc1OCCNC(=O)Cc1ccc(S(=O)(=O)N2CCOCC2)s1, CC(C)C(NC(=O)c1ccco1)C(=O)NCc1ccc(C(=O)O)cc1 (stereo not given), O=C(OCc1ccccc1)N(CCCCN(CCCNCc1ccccc1)C(=O)OCc1ccccc1)CCCNCc1ccccc1, Cc1c(Cl)cccc1NC(=S)N(CCCN1CCOCC1)Cc1cccs1, CCOc1cc(/C=C(/C#N)c2ccc(F)cc2)ccc1OCc1ccc(C(=O)O)o1, Cc1nnc(-c2ccc(N3CCOCC3)c([N+](=O)[O-])c2)o1, O=C(Nc1c(C(=O)N2CCN(c3ccccc3F)CC2)oc2ccccc12)c1cccc(F)c1, O=C(CNC(=O)c1n[nH]c2ccccc12)Nc1ccc(F)c(F)c1F, O=C(NNC(=O)c1cc(Br)c(Br)s1)c1ccncc1, O=C(c1ccc(F)cc1)c1cn(Cc2ccccc2)c2cc3c(cc2c1=O)OCO3, Cc1nc2cc(NC(=O)Nc3ccc(N4CCOCC4)cc3)ccc2n1C, COc1ccccc1CNc1nc2c(S(=O)(=O)c3ccc(C)c(C)c3)nnn2c2ccc(Cl)cc12, O=C(CNCCCO)Nc1cc(C(F)(F)F)cc(NC(=O)CNCCCO)c1Cl, COc1ccc(-c2ccc(NS(=O)(=O)c3cc(C)c(C)cc3C)cc2)nn1, O=C(COC(=O)CCC(=O)c1cccs1)Nc1cccc(F)c1

Potency, active:
CCn1c(C)c(C)c2cc(C(=O)NCCCN3CCCCCC3)ccc21 56.2 µM, O=C(Cn1nc(-c2ccc(Cl)cc2)c2ccccc2c1=O)NCC1CCCO1 (stereo not given) 35.5 µM, CCn1c(SC(C)C(=O)O)nc2sc3c(c2c1=O)CCC3 (stereo not given) 89.1 µM, C#CCOCCOCCOCCNc1nc(N2CCN(C(=O)CCCCCCCCCCNC(=O)[C@@H](CCSC)n3cc(CCO)nn3)CC2)nc(N2CCN(C(=O)CCCCCCCCCCNC(=O)[C@H](CCCN=C(N)N)n3cc(C[C@@H](C)CC)nn3)CC2)n1 44.7 µM, NC(=O)NC(=O)CC1S/C(=N/N=C2\CSC(=O)N2)NC1=O (stereo not given) 8.91 µM, CNC(=S)N/N=C/c1cc(Br)cc(Br)c1O 31.6 µM, Brc1ccc(N/N=C(/N=Nc2nn[nH]n2)c2ccccc2)cc1 12.6 µM, COc1ccc(CCCc2nnc(SCc3nc4ccccc4c(=O)[nH]3)n2C)cc1 15.8 µM, C=CCc1cc(C)ccc1OCCCn1ccnc1 20 µM, COc1ccc2ccccc2c1CNC(C)CCc1ccccc1 (stereo not given) 79.4 µM, COc1ccc(N2CCN(c3nc4ccccc4nc3NS(=O)(=O)c3ccccc3)CC2)cc1 50.1 µM, O=C(NCCc1ccc(Cl)cc1)C1CCN(S(=O)(=O)c2ccc(-n3cnnn3)cc2)CC1 79.4 µM
